Test results: patent publication US20070059306A1 (TRUBION PHARMACEUTICALS, published 2007)

Target: T1, CD37 (human, UniProt P11049 1-281)
T1 construct: whole, on cells; Endogenous CD37 on human cells; also called CD37 antigen; CD37 cell surface receptor
T1 sequence (looked up): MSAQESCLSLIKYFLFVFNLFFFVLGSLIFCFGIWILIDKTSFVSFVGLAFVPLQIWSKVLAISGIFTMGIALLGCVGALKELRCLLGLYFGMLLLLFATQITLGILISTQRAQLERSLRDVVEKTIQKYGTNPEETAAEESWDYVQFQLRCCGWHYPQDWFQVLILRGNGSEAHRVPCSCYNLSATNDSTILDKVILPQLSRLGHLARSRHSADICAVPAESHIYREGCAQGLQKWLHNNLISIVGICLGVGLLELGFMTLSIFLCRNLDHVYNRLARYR
Experiment: binding to Ramos B cells

Row | Binder | binding result
1 | Humanized TRU-016 construct no. 019041 (Fc fusion, 019006 with CDR-H3 JH4, 15aa gly4ser linker, SSC-P hinge) EIVLTQSPATLSLSPGERATLSCRASENVYSYLAWYQQKPGQAPRLLIYFAKTLAEGIPARFSGSGSGTDFTLTISSLEPEDFAVYYCQHHSDNPWTFGQGTKVEIKGGGGSGGGGSGGGGTGEVQLVQSGAEVKKPGESLKISCKGSGYSFTGYNMNWVRQMPGKGLEWMGNIDPYYGGTTYNRKFKGQVTISADKSISTAYLQWSSLKASDTAMYYCARSVGPFDYWGQGTLVTVSSDQ[human IgG1 Fc with changes not shown] | binds
2 | Humanized TRU-016 construct no. 019044 (Fc fusion, 019006 with CDR-H3 JH5a, 15aa gly4ser linker, SSC-P hinge) EIVLTQSPATLSLSPGERATLSCRASENVYSYLAWYQQKPGQAPRLLIYFAKTLAEGIPARFSGSGSGTDFTLTISSLEPEDFAVYYCQHHSDNPWTFGQGTKVEIKGGGGSGGGGSGGGGTGEVQLVQSGAEVKKPGESLKISCKGSGYSFTGYNMNWVRQMPGKGLEWMGNIDPYYGGTTYNRKFKGQVTISADKSISTAYLQWSSLKASDTAMYYCARSVGPFDSWGQGTLVTVSSDQ[human IgG1 Fc with changes not shown] | binds
